According to the supplement of paper PMC11246515:
± gives the standard deviation of the averaged measurements.

Assay: total protein half-life in vivo (active degradation + dilution); higher = more stable protein
[1] = E. coli NCM3722 delta-clpP delta-lon delta-hslV, growth: N-lim chemostat, doubling time 6 h
[2] = E. coli NCM3722 delta-clpP, growth: N-lim chemostat, doubling time 6 h
[3] = E. coli NCM3722 delta-hslV, growth: N-lim chemostat, doubling time 6 h
[4] = E. coli NCM3722 delta-lon, growth: N-lim chemostat, doubling time 6 h
[5] = E. coli NCM3722 delta-smpB, growth: N-lim chemostat, doubling time 6 h
[6] = wild type E. coli NCM3722, growth: C-lim chemostat, doubling time 3 h
[7] = wild type E. coli NCM3722, growth: C-lim chemostat, doubling time 6 h
[8] = wild type E. coli NCM3722, growth: C-lim chemostat, doubling time 12 h
[9] = wild type E. coli NCM3722, growth: N-lim chemostat, doubling time 6 h
[10] = wild type E. coli NCM3722, growth: N-lim chemostat, doubling time 12 h
[11] = wild type E. coli NCM3722, growth: P-lim chemostat, doubling time 6 h
[12] = wild type E. coli NCM3722, growth: P-lim chemostat, doubling time 12 h

MQEQYRPEEIESKVQLHWDEKRTFEVTEDESKEKYYCLSMLPYPSGRLHMGHVRNYTIGDVIARYQRMLGKNVLQPIGWDAFGLPAEGAAVKNNTAPAPWTYDNIAYMKNQLKMLGFGYDWSRELATCTPEYYRWEQKFFTELYKKGLVYKKTSAVNWCPNDQTVLANEQVIDGCCWRCDTKVERKEIPQWFIKITAYADELLNDLDKLDHWPDTVKTMQRNWIGRSEGVEITFNVNDYDNTLTVYTTRPDTFMGCTYLAVAAGHPLAQKAAENNPELAAFIDECRNTKVAEAEMATMEKKGVDTGFKAVHPLTGEEIPVWAANFVLMEYGTGAVMAVPGHDQRDYEFASKYGLNIKPVILAADGSEPDLSQQALTEKGVLFNSGEFNGLDHEAAFNAIADKLTAMGVGERKVNYRLRDWGVSRQRYWGAPIPMVTLEDGTVMPTPDDQLPVILPEDVVMDGITSPIKADPEWAKTTVNGMPALRETDTFDTFMESSWYYARYTCPQYKEGMLDSEAANYWLPVDIYIGGIEHAIMHLLYFRFFHKLMRDAGMVNSDEPAKQLLCQGMVLADAFYYVGENGERNWVSPVDAIVERDEKGRIVKAKDAAGHELVYTGMSKMSKSKNNGIDPQVMVERYGADTVRLFMMFASPADMTLEWQESGVEGANRFLKRVWKLVYEHTAKGDVAALNVDALTENQKALRRDVHKTIAKVTDDIGRRQTFNTAIAAIMELMNKLAKAPTDGEQDRALMQEALLAVVRMLNPFTPHICFTLWQELKGEGDIDNAPWPVADEKAMVEDSTLVVVQVNGKVRAKITVPVDATEEQVRERAGQEHLVAKYLDGVTVRKVIYVPGKLLNLVVG
total protein half-life in vivo [1]: 5.24 ± 0.23 h | total protein half-life in vivo [2]: 4.9 ± 0.34 h | total protein half-life in vivo [3]: 4.9 ± 0.43 h | total protein half-life in vivo [4]: 5.36 ± 0.62 h | total protein half-life in vivo [5]: 4.58 ± 0.11 h | total protein half-life in vivo [6]: 3.15 ± 0.27 h | total protein half-life in vivo [7]: 5.5667 ± 0.0052 h | total protein half-life in vivo [8]: 11 ± 0.44 h | total protein half-life in vivo [9]: 4.4 ± 0.07 h | total protein half-life in vivo [10]: 7.83 ± 0.26 h | total protein half-life in vivo [11]: 6.158 ± 0.0094 h | total protein half-life in vivo [12]: 11.2 ± 0.63 h

MMENYKHTTVLLDEAVNGLNIRPDGIYIDGTFGRGGHSRLILSQLGEEGRLLAIDRDPQAIAVAKTIDDPRFSIIHGPFSALGEYVAERDLIGKIDGILLDLGVSSPQLDDAERGFSFMRDGPLDMRMDPTRGQSAAEWLQTAEEADIAWVLKTYGEERFAKRIARAIVERNREQPMTRTKELAEVVAAATPVKDKFKHPATRTFQAVRIWVNSELEEIEQALKSSLNVLAPGGRLSIISFHSLEDRIVKRFMRENSRGPQVPAGLPMTEEQLKKLGGRQLRALGKLMPGEEEVAENPRARSSVLRIAERTNA
total protein half-life in vivo [1]: 4.825 ± 0.021 h | total protein half-life in vivo [2]: 5.08 ± 1.4 h | total protein half-life in vivo [3]: 4.53 ± 0.21 h | total protein half-life in vivo [4]: 5.15 ± 0.28 h | total protein half-life in vivo [5]: 4.49 ± 0.4 h | total protein half-life in vivo [6]: 3.25 ± 0.07 h | total protein half-life in vivo [7]: 5.72 ± 0.67 h | total protein half-life in vivo [8]: 9.675 ± 0.028 h | total protein half-life in vivo [9]: 4.68 ± 0.47 h | total protein half-life in vivo [10]: 7.5 ± 0.47 h | total protein half-life in vivo [11]: 4.97 ± 0.17 h | total protein half-life in vivo [12]: 10.4 ± 0.39 h
